Source: the RNAGym collection of RNA variant scans (doi:10.1093/nar/gkz1192)
Read counts are not given, so values of variants with three or more changes are uncertain.

B1: CPEB3 Ribozyme (parent)
chain: UAACAGGGGGCCACAGCAGAAGCGUUCACGUCGCAGCCCCUGUCAGAUUCUGGUGAAUCUGCGAAUUCUGCUGUAUAUCUC

Variants of: B1
Assay: self-cleavage, relative activity (ratio to wild type); higher = more cleavage; in vitro, sequencing
Summary of the method: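 CPEB3 self-cleaving ribozyme mutant libraries were made by rounds of error-prone PCR, barcoded, and transcribed in vitro with T7 RNA polymerase for 5 hours at 37°C. Cleavage occurred during transcription and a 15 min DNase I step before EDTA stop. RNAs were reverse transcribed with template switching and Illumina-sequenced, with DNA sequencing mapping barcodes to variants. Relative activity is the variant's cleaved/total read fraction divided by wild type's (minimum 5 reads), averaged across three batches.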
Variant G6U A35U U41A U69C U72A has a self-cleavage of 0.1. G6A A28U U31A A35U C38A G55A showed a self-cleavage of 0.04. Variant G7A U51C U58C A65G has a self-cleavage of 0.08. For G6C A35U U48C C68G, the self-cleavage was 0.2. Work on G6A U31A A35G A57G C68G yielded a self-cleavage of 0.06. Work on G6A A18G A47U yielded a self-cleavage of 0.29. G6A G10U C12U U26C showed a self-cleavage of 0.05. For G6A U43A U78C, the self-cleavage was 0.39. G6A A13C U31C U43C gave a self-cleavage of 0.27. G7A U25C C40U A56U G70C gave a self-cleavage of 0.04. A5U U60C C62G U78C gave a self-cleavage of 0.31. In the case of G6A A15G U25C U26A, the self-cleavage is reported as 0.37. In the case of G6A A18G A28G U41C U76A, the self-cleavage is reported as 0.04. G7U A15G U31A A35G A45U showed a self-cleavage of 0.04. With G7A A21C U41A U49G A57U U76A C79U the self-cleavage was 0. In the case of G7A A18G G24A A35U U67C, the self-cleavage is reported as 0.05. Variant G6A A35U A45G U60C U69C has a self-cleavage of 0.17. Work on G6A A15G A21U G22C A28G yielded a self-cleavage of 0.41. Work on G6A G52A G63A A77G yielded a self-cleavage of 0.39. With G7U A18G U72C the self-cleavage was 0.08. With A5U U60C U66G U72A the self-cleavage was 0.33. For G6A C23G G52C U69C U78C, the self-cleavage was 0.16. Work on G6A A47U U67C yielded a self-cleavage of 0.13. In the case of G7A U26C U54G U67A, the self-cleavage is reported as 0.14. For G6A A13C A20G U25C A35G C37U U43C, the self-cleavage was 0.07. In the case of G6A U25A C27U A47U U60C, the self-cleavage is reported as 0.14. G7A C27A A64G showed a self-cleavage of 0.07. For G6U C14U U66C U67C, the self-cleavage was 0.06. Variant G6C A15G A35U has a self-cleavage of 0.33. In the case of G7A U60C A75G, the self-cleavage is reported as 0.09. G7U A15C U54G gave a self-cleavage of 0.09. For G7A G9U A21U A65G U69C, the self-cleavage was 0.04. With G7A A35U U41A U72C the self-cleavage was 0.05. Work on G6A G9A A21G U25C A56U U60C C79U yielded a self-cleavage of 0.05. Work on G6A U25C A57U yielded a self-cleavage of 0.22. Work on G6A U26C U43A A56G U60A A65G yielded a self-cleavage of 0.08. Work on G7U A20G U25C U69A U78A yielded a self-cleavage of 0.05. G6U A20G G22A C38A U49C G55A U78C showed a self-cleavage of 0.03. G7U A18U U41C U54C C81U gave a self-cleavage of 0.05. With G6U A35G U60A U80C the self-cleavage was 0.21. Variant G6A A20G A56G A65G has a self-cleavage of 0.15. Variant G6A U25C C32G G36A A45U A65G U67C has a self-cleavage of 0.04. For G7A A13U U54C C62U, the self-cleavage was 0.06. G6A A18G U74C showed a self-cleavage of 0.13. G7C A21U C27U U69A U78C showed a self-cleavage of 0.19. G6A C12A A20C A35G A64G U72C gave a self-cleavage of 0.03. G6U G63A U72C showed a self-cleavage of 0.34. In the case of G7U A18G G19U U54A G55U A56G, the self-cleavage is reported as 0.13. For G6A C12U C23U A56G C62G, the self-cleavage was 0.23. G7C A28G U48C U60A A64G U72C U80A showed a self-cleavage of 0.04. G6A C32U U43A A47C showed a self-cleavage of 0.05. For G6A U26A U31C U54C, the self-cleavage was 0.13. With G6A A20G G24C U69A the self-cleavage was 0.06. Work on G6A A13G U26C A28U U72C yielded a self-cleavage of 0.06. With G6C C39G U72C the self-cleavage was 0.1. Variant G7A A13G C40U has a self-cleavage of 0.61. With G7A A13U C40U A47G U54A U69A the self-cleavage was 0.06. G7A G53A U60A U69C gave a self-cleavage of 0.08. In the case of G7C U25C U26A U72C, the self-cleavage is reported as 0.5. Work on G7U A13G A20U U25C U41A yielded a self-cleavage of 0.02. Variant G7U A18G U49A has a self-cleavage of 0.27. G6A A47U A65G U74C showed a self-cleavage of 0.07. With G7C A20U G55A the self-cleavage was 0.06. In the case of G6A A18G U48A U54A A57G, the self-cleavage is reported as 0.16. G6U U25G C32U A47G U67C showed a self-cleavage of 0.26. G7A A21G U48A U80C gave a self-cleavage of 0.38. In the case of G6A U49C U54G U58A U78G, the self-cleavage is reported as 0.04. G6A U43C U48A U67C A77U showed a self-cleavage of 0.15. For G6U A20G A35U A45G U69A, the self-cleavage was 0.06. For G6A A13G A18G U43C U78C, the self-cleavage was 0.06. G7A A15G A56U showed a self-cleavage of 0.3. For G7A G30U U78C, the self-cleavage was 0.05. G7A A64U U67C gave a self-cleavage of 0.06. With G7C U26A A64U U76C the self-cleavage was 0.06. For G7C U48A U58C U60C, the self-cleavage was 0.07. With G7A C12U U25G U41C U43A the self-cleavage was 0.05. With G6A A15U A35G U67A the self-cleavage was 0.18. For G6C U72G G73C U78A U80C, the self-cleavage was 0.43. In the case of G6A A15G A56G U69C U72C, the self-cleavage is reported as 0.16. With G7A A13G A18U A20G the self-cleavage was 0.07. In the case of G7A G33U U67C A75G, the self-cleavage is reported as 0.34. Work on G6A A13U U31A A45C A57G U69C U80A yielded a self-cleavage of 0.06. Variant G6A A15U A18G U60C has a self-cleavage of 0.16.
